# In PubChem BioAssay AID1347073 (National Center for Advancing Translational Sciences (NCATS), 2019):
# In all, about 45,000 compounds went through this assay and about 200 (0.44%) were called active. Another 7% or so got no clear call; they are omitted. Calls come from the whole dose curve; as a rule, active = well fitted activation curve with a large enough effect; inconclusive = small, poorly fitted or top-dose-only effect; inactive = no such curve, though single readings can be large or run the other way. The list shows a part of the results.
# Test: qHTS of TDP-43 Inhibitors: NCGC Sytravon Library Screen; note: nearly all actives have a fitted effect of over 55% in size; for growth rescue (activation): 0% is about no effect
# Settings: yeast TDP-43 toxicity rescue, BacTiter-Glo growth, 24 h; series mostly up to 46.1 µM; growth rescue (activation): at the top concentration
# In short: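 TDP-43-expressing yeast, pregrown in raffinose, seeded at OD600 0.02 in galactose medium with compound for 24 hr at 30 deg C. Growth read by BacTiter-Glo luminescence, so rescue of toxicity appears as activation.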
# Potency is the fitted concentration of half-maximal effect.
SMILES,growth rescue (activation),Potency
COCCCN1C(=O)C(=O)/C(=C(/O)c2ccc(OC)cc2)C1c1ccc(O)c(OC)c1 (stereo not drawn),inactive: -11.1%,
CCCC(C)NC(=O)COc1ccc(S(=O)(=O)N2CCCC2)cc1 (stereo not drawn),inactive: 7.49%,
Cc1ccc(CNCCCSc2ncccn2)cc1,inactive: -1.13%,
COCCNC(=O)C1CCCN(C(=O)c2ccc3sccc3c2)CC1 (stereo not drawn),inactive: -0.657%,
CCN(CC)S(=O)(=O)c1ccc(N2CCOCC2)c(NS(=O)(=O)c2ccc(C)c(C)c2)c1,inactive: -5.4%,
O=C1/C(=C/c2cccs2)Cc2ccccc21,inactive: 35.1%,
CC(C)CNC(=O)c1c(F)c(F)c(F)c(F)c1F,inactive: 6.32%,
COc1ccccc1NS(=O)(=O)c1cc(NC(=O)c2ccccc2[N+](=O)[O-])ccc1N1CCOCC1,inactive: -3.55%,
O=C(NNC(=O)c1ccc(S(=O)(=O)N2CCCCC2)cc1)c1ccc(F)cc1,inactive: 1.52%,
Cc1ccc(S(=O)(=O)N(CC(=O)Nc2ccccc2-c2ccccc2)c2ccc(C)cc2C)cc1,inactive: -2.17%,
Cc1ccc(NC(=S)N(Cc2cccc(Br)c2)CC2CCC(C(=O)O)CC2)cc1 (stereo not drawn),inactive: 13.7%,
Cc1cc(=O)[nH]c(N2CCCC2)n1,inactive: 4.1%,
COc1ccc(/C=N/NC(=O)c2ccncc2)cc1OC,inactive: -4.4%,
CCOc1ccc(C(=O)NC(C(=O)NCc2cccnc2)C(C)C)cc1 (stereo not drawn),inactive: -4.63%,
Nc1nnc(CSCc2cccc(Br)c2)s1,inactive: -4.07%,
N#C/C(=C\c1ccc(-c2ccccc2[N+](=O)[O-])o1)C(=O)Nc1nc(-c2cccs2)cs1,inactive: -14.9%,
Cc1ccc(-c2nc(-c3ccccn3)no2)cc1Cl,inactive: 9.64%,
CCCOc1ccc(F)cc1-c1cc(C(=O)Nc2ccccc2)[nH]n1,inactive: 27.9%,
CN(C)S(=O)(=O)N1CCC(Oc2ccc(C(=O)NCCc3cscn3)cc2)CC1,inactive: 6.64%,
CCCCSCc1nc2ccccn2c1Br,inactive: 22.1%,
C=CCO/N=C(/CCC)C1=C(N)CC(C)(C)CC1=O,inactive: 8.51%,
O=C(CN1CCCCCC1)Nc1ccc([N+](=O)[O-])cc1Br,inactive: 2.47%,

SMILES,growth rescue (activation),Potency
Cc1ccc(NC(=O)C(OC(=O)c2ccc(NC(N)=O)cc2)c2ccccc2)cc1Cl (stereo not drawn),inactive: -1.16%,
O=C(Nc1cccnc1)c1cccc(S(=O)(=O)N2CCCC2)c1,inactive: -4.69%,
CC(=O)CSc1nnc(-c2ccc(S(=O)(=O)N3CCCC3)cc2)n1C,inactive: -4.76%,
CC(CC(=O)O)NCC1COc2ccccc2O1 (stereo not drawn),inactive: 15.1%,
O=C(O)c1cc(N/N=C/c2ccc3c(c2)OCO3)ccc1Cl,inactive: 14.8%,
O=C(N/N=C/c1ccccn1)c1cc(C2CC2)nc2ccccc12,inactive: 10.5%,
Cc1ccc2nc(NC(=O)c3cc(-c4ccco4)nc4ccccc34)sc2c1,inactive: -12%,
CC(=O)Nc1ccc(C(=O)NNC(=O)Cc2ccccc2)cc1,inactive: 6.06%,
CCOc1cc(-c2noc(CCCC(=O)NC3CCCCC3)n2)ccc1OC,inactive: 20%,
CC1(C)CN=C(N(Cc2ccccc2)C(=O)Nc2ccccc2)S1,inactive: -6.48%,
O=C(Nc1ccccc1)N1CCC(C(=O)N2CCN(c3ccccc3F)CC2)CC1,inactive: 10.4%,
Cc1ccccc1OCc1nc2c3cnn(-c4ccccc4Br)c3ncn2n1,inactive: 7.7%,
COc1ccc(CC(=O)NNC(=O)c2cccs2)cc1,inactive: 12.6%,
COc1ccc(C(=O)NC(=S)Nc2ccc(N3CCCC3)cc2)cc1,inactive: -1.72%,
CN1CCN(c2oc(-c3ccccc3)nc2S(=O)(=O)c2ccccc2)CC1,inactive: 2.11%,
CC(=O)OC[C@@H]1CN(Cc2ccccc2)C[C@H](n2cnc3c(NCc4ccco4)ncnc32)O1,inactive: 3.86%,
COc1ccc(C(NC(=O)C2CCCCC2)c2c(O)ccc3ccccc23)cc1 (stereo not drawn),inactive: 3.64%,
CCc1ccc[n+](-c2[nH]c(=O)sc2/C=N/NC([S-])=Nc2ccccc2)c1,inactive: 8.11%,
Cc1ccc(N(C(=O)Nc2ccccc2)C2=NCCC2)cc1,inactive: 2.9%,
CCC(=Nc1ccccc1OC)C1=C(O)CC(c2ccccc2)CC1=O (stereo not drawn),inactive: -0.948%,
O=c1cnnc(Nc2ccccc2F)[nH]1,inactive: -11.1%,
Cc1c(NC(=O)c2ccc(Cl)s2)c(=O)n(-c2ccccc2)n1C,inactive: 10.7%,

SMILES,growth rescue (activation),Potency
COCCCNC(=O)C1CCN(c2nnc(-n3cccc3CNc3ccc(C)cc3)s2)CC1,inactive: 7.37%,
COc1ccc(CC(=O)Nc2ccc(F)c(S(=O)(=O)N3CCOCC3)c2)cc1,inactive: 3.51%,
COc1ccc(Cl)cc1NC(=O)CSc1nc2sccc2c(=O)[nH]1,inactive: 7.42%,
O=C(O)c1ccccc1N(Cc1ccccc1)C(=O)CO/N=C/c1ccccc1,inactive: -21.8%,
O=C(COC(=O)c1c(Cl)ccc(Cl)c1Cl)NCC1CCCO1 (stereo not drawn),,active: 14.1 µM
CCOc1ccc(-c2c(C(=O)N/N=C/c3ccc(O)cc3)nnn2-c2nonc2N)cc1,inactive: 13.8%,
OC[C@@H]1CN(Cc2ccco2)C[C@H](n2cnc3c(NC4CC4)ncnc32)O1,inactive: 19.6%,
Cc1ccc(NC(=O)CNS(=O)(=O)c2ccc(F)cc2)cc1C,inactive: 5.8%,
Cc1sc2ncn(CC(=O)N3CCC(C(N)=O)CC3)c(=O)c2c1S(=O)(=O)N1CCOCC1,inactive: 12.5%,
Cn1ccnc1SCC(=O)c1ccc(C#N)cc1,inactive: -1.26%,
O=C1c2ccccc2C(=O)N1c1ccc(Cc2ccncc2)cc1,inactive: 2.36%,
COc1ccc(N(C(=O)c2cnccn2)C(C(=O)NC2CCCCC2)c2ccccc2)cc1 (stereo not drawn),inactive: -24.6%,
COc1ccccc1NS(=O)(=O)c1cc(NC(=O)c2ccc3ccccc3n2)ccc1Cl,inactive: 18.1%,
CS(=O)(=O)N1N=C(c2ccccc2)CC1c1ccc2c(c1)OCO2 (stereo not drawn),inactive: 10.2%,
CC(=O)Nc1ccc(NC(=O)c2sc3nc4n(c(=O)c3c2C)CCCCC4)cc1,inactive: 6.05%,
COc1ccc(NC(=O)CC23CC4CC(C2)CC(n2nnc(C)n2)(C4)C3)cc1,inactive: 8.85%,
COc1ccc(-c2cnc(C(O)c3ccc(OC)c(F)c3)[nH]2)cc1 (stereo not drawn),inactive: 8.44%,
COc1cccc(NC(=O)COc2ncnc3sc(C)c(C)c23)c1,inactive: -6.93%,
CCCc1nnc(NC(=O)CS(=O)(=O)c2ccc(C)cc2)s1,inactive: -1.14%,
CCc1nc2c(OCCOc3ccccc3)cccn2c1N(C)C(=O)c1ccc(C)cc1,inactive: 7.24%,
O=C(CSc1ccc2ccccc2c1)Nc1nc2ccccc2[nH]1,inactive: 4.66%,
CCOc1cc(/C=N/NC(=O)C(=O)NCc2cccnc2)ccc1O,inactive: 1.73%,

SMILES,growth rescue (activation),Potency
CN(C(=O)CSc1nnc(-c2c[nH]c3ccccc23)o1)C1CCS(=O)(=O)C1 (stereo not drawn),inactive: 3.03%,
Cc1ccc(OCCn2c3ccccc3n3nc(C)c(=O)nc23)cc1,inactive: 23.2%,
Cc1cc(N(C)N)nc(NC(=O)NS(=O)(=O)c2ccccc2Cl)n1,inactive: 13.9%,
CCc1ccc(C(=O)/C=C/Nc2ccc(S(=O)(=O)Nc3cnc4ccccc4n3)cc2)cc1,inactive: 18.8%,
COc1cccc2cc(C(=O)N3CCCCC3C)c(=O)oc12 (stereo not drawn),inactive: -1%,
Cc1ccc(/C=C/C(=O)Nc2nnc(C)s2)o1,inactive: 20.5%,
CC(OC(=O)CN(C)S(=O)(=O)c1ccc(Cl)cc1)C(=O)Nc1ccc(N2CCOCC2)cc1 (stereo not drawn),inactive: 14.8%,
COc1cc(C(=O)N/N=C2\CCS(=O)(=O)c3ccc(F)cc32)cc(OC)c1OC,inactive: 4.19%,
Cc1ccc(NC(=O)CN2CCCC2c2cccn2C)cc1C (stereo not drawn),inactive: -7.17%,
CCC(CC)NC(=O)COC(=O)c1ccc(OCc2ccc(C(C)=O)cc2OC)c(OC)c1,inactive: 15.2%,
Cn1c(N)c(N2CCCCC2)c(=O)n(CC(=O)Nc2ccc(Cl)c(Cl)c2)c1=O,inactive: -11.4%,
O=C(/C=C/c1ccco1)Nc1scc(-c2ccccc2)c1C(=O)O,inactive: -53.1%,
CC(C)(C)NC(=O)c1ccc(NC(=O)CSc2ccccc2)cc1,inactive: 11.1%,
Cc1nn(CCOc2ccccc2Cl)c(C)c1[N+](=O)[O-],inactive: 0.521%,
COc1cccc(NC(=O)CSc2nc(C3CC3)nc3ccccc23)c1,inactive: 18.8%,
O=C(CSc1nc2ncccc2[nH]1)c1cccc([N+](=O)[O-])c1,inactive: 11.5%,
O=C(CNC(=O)c1cccs1)c1ccc(Cl)cc1,inactive: 12.6%,
O=C(COC(=O)c1cccs1)Nc1cccc(S(=O)(=O)N2CCOCC2)c1,inactive: 12.5%,
COc1ccccc1C(=O)NCc1ccccn1,inactive: -1.18%,
COc1ccc2cc(S(=O)(=O)N3CCCC3)ccc2c1,inactive: 35.5%,
COC(=O)c1sc(NC(=O)CSc2nc3nc(C)cc(C)n3n2)c(C(=O)OC)c1C,inactive: 7.07%,
CC12CNCC(C)(CN(C3(O)C(=O)Nc4ccc(Br)cc43)C1)C2=O (stereo not drawn),inactive: 12.1%,

SMILES,growth rescue (activation),Potency
O=C(CN1C(=O)NC(c2ccccc2)(c2ccccc2)C1=O)Nc1cccnc1Cl,inactive: 13.4%,
OC(c1cccc(CN2CCCCC2)c1)c1ncc(-c2cccc3ccccc23)[nH]1 (stereo not drawn),inactive: 21.6%,
COc1ccc(NC(=O)c2cc3c(CO)cnc(C)c3oc2=Nc2cc(OC)cc(OC)c2)cc1,inactive: -1.03%,
CCN(CC)C(=O)C1c2ccccc2Oc2ccccc21,inactive: 18.2%,
CCc1ccc(Nc2nnc(SC3CCOC3=O)s2)cc1 (stereo not drawn),inactive: 6.15%,
COC(=O)/C(=C/c1ccc(OC)cc1)NC(=O)c1ccco1,inactive: 22.2%,
O=C(Cc1ccccc1)NNC1CC(=O)N(c2ccc(Oc3ccccc3)cc2)C1=O (stereo not drawn),inactive: -5.79%,
CC(C)(C)NC(=O)NC(=O)CSc1nncs1,inactive: 4.99%,
NS(=O)(=O)c1ccc(NC(=O)CNC(=O)c2ccc3c(c2)OCO3)cc1,inactive: 2.67%,
O=C(Nc1ccc(S(=O)(=O)N2CCCC2)cc1)C1CCCCC1,inactive: 1.2%,
Cc1cc(Nc2ccc(O)cc2)n2c(nc3ccccc32)c1C#N,inactive: 8.72%,
COCc1[nH][nH]c(=O)c1C=Nc1ccccc1,inactive: 19.8%,
CCCCN1C(=O)C(O)(c2c(C)[nH]c3ccccc23)c2cc(Br)ccc21 (stereo not drawn),inactive: 0.377%,
Cc1onc(-c2ccccc2Cl)c1C(=O)Nc1nc2ccc(S(C)(=O)=O)cc2s1,inactive: 21.9%,
O=[N+]([O-])c1ccc(N2CCN(C(=S)c3cccc([N+](=O)[O-])c3)CC2)cc1,inactive: 32.8%,
COc1ccc(S(=O)(=O)N2CCCCC2)cc1NC(=O)C1CC(=O)N(Cc2ccco2)C1 (stereo not drawn),inactive: 6.63%,
O=[N+]([O-])c1ccc(Nc2nc(NCCO)nc(N3CCCC3)n2)cc1,inactive: 7.72%,
COc1ccc(NC(=O)c2cc3c(=O)n(C)c4ccccc4c3n2C)cc1Cl,inactive: 1.31%,
COc1ccccc1CN(C)C(=O)CSCC(=O)Nc1ccccc1F,inactive: 30.8%,
CCOC(=O)C1(CCCc2ccccc2)CCN(C(=O)C2=C(C)OCCO2)CC1,inactive: 10.2%,
